Measured values published in PMC4336329 (PLoS ONE, 2015).
The whole screen tested about 310,000 compounds, of which about 2,200 (0.71%) showed an effect of 50% or more. Effects have a minus sign here. The list shows a part of the results.

Target: human ether-à-go-go-related gene (hERG) potassium channel (human, UniProt Q12809)
Test: primary screen, population patch clamp on CHO cells stably expressing hERG

Chain of human ether-à-go-go-related gene (hERG) potassium channel (Q12809 whole entry, looked up): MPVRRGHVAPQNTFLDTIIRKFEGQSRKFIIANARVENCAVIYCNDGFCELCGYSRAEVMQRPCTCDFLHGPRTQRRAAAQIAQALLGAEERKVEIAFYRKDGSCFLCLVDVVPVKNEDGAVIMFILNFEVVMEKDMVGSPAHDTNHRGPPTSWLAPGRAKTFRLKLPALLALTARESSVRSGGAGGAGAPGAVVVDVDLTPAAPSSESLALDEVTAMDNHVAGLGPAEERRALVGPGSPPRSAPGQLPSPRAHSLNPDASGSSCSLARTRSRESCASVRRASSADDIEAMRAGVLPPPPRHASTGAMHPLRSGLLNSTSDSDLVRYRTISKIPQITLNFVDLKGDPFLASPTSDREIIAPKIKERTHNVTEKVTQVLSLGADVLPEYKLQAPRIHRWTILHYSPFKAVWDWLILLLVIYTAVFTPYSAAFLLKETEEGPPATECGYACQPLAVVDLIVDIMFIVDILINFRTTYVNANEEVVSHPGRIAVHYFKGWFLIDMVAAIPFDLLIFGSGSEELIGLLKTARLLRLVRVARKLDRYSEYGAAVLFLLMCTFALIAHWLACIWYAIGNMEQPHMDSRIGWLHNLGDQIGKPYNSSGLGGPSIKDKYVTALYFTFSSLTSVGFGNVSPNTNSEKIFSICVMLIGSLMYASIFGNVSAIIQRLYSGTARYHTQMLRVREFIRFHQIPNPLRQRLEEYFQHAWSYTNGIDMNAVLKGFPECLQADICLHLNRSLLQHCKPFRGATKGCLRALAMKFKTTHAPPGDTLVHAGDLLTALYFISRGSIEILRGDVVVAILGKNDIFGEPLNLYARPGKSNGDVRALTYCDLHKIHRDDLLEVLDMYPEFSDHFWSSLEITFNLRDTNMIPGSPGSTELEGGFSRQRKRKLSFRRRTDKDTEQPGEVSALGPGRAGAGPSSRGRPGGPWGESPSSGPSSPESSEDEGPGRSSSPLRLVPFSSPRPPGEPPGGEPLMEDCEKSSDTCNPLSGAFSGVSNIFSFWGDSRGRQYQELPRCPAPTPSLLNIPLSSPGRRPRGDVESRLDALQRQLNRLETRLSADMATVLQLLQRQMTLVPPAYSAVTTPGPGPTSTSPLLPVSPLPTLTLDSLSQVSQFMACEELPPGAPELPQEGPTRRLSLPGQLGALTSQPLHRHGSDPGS

Row | Structure (SMILES) | hERG current change (%, negative = inhibition) at 1uM
1 | Cc1nc(CN2CCN(C(=O)c3ccc(Br)cc3)CC2)cs1 | 9.67%
2 | O=C(Cn1sc2ccccc2c1=O)N1CCN(C(=O)c2ccco2)CC1 | 6.74%
3 | O=C1CSC(c2cn(-c3ccccc3)nc2-c2cccs2)N1Cc1ccccc1 (centres unmarked) | 11.3%
4 | COC(=O)c1[nH]c2cc(C)ccc2c1NC(=O)CN1CCc2cc(OC)c(OC)cc2C1 | 9.75%
5 | O=C(COc1ccc(Br)cc1)N1CCN(S(=O)(=O)/C=C/c2ccccc2)CC1 | 2.95%
6 | CN(Cc1ccccc1)/C(=N/O)c1cccc(Cl)c1 | 13.2%
7 | C=CCc1cc(Cl)ccc1OCCOCCN(C)C.O=C(O)C(=O)O | 6.3%
8 | CCN(C(=O)COC(=O)c1cn(C)c2ccccc12)c1ccc(F)cc1 | 9.43%
9 | C/C(Cl)=C/Cc1c(C)[nH]c2c(ccc3ccccc32)c1=O | 21.2%
10 | Cn1nc(C(=O)Nc2ccccc2N2CCCC2)c2ccccc2c1=O | 2.57%
11 | CCOc1cc(/C=C2\COc3ccccc3C2=O)ccc1OCC(=O)N(C)C | 20.9%
12 | O=C1N/C(=C/c2ccc(Br)cc2)C(O)=C1C=NCc1ccccc1 | 3.82%
13 | S=c1[nH]nc(-c2cccnc2)n1/N=C/C=C/c1ccco1 | 5.23%
14 | C=CCN1C(=O)C(CC(=O)O)SC1=Nc1c(C)n(C)n(-c2ccccc2)c1=O (centres unmarked) | 2.51%
15 | CCOc1ccc(NS(=O)(=O)c2ccc(C(=O)NCC(c3ccco3)N(C)C)cc2)cc1 (centres unmarked) | 4.56%
16 | O=C(O)c1cc(S(=O)(=O)N2CC3CC3C2C(=O)O)c(Cl)cc1Cl (centres unmarked) | 13.9%
17 | O=C(CCC(=O)c1cccs1)Nc1ccccc1F | 5.69%
18 | Cc1nc2ccc(NC(=O)N3CCCCC3)cc2nc1C | 15.3%
19 | COc1cccc(CNS(=O)(=O)c2ccc(S(=O)(=O)NC3CC3)cc2)c1 | 11.1%
20 | Oc1cc(Br)ccc1C=Nc1ccc(N2CCCCC2)cc1 | 9.03%
21 | O=C(OCC(=O)N1CCN(S(=O)(=O)c2ccc(Cl)cc2)CC1)C1CC1 | 1.98%
22 | Oc1ccccc1/C=N/N1CCN(c2ccccn2)CC1 | 9.06%
23 | CCOc1cc(C(c2c(C)[nH][nH]c2=O)c2c(C)[nH][nH]c2=O)cc(Br)c1OC | 16.3%

Row | Structure (SMILES) | hERG current change (%, negative = inhibition) at 1uM
24 | O=C(NC1CC2CCCC(C1)N2Cc1ccccc1)c1ccc([N+](=O)[O-])cc1 (centres unmarked) | -82.2%
25 | CN1C(C(=O)NCc2cccs2)=CC(c2ccc(F)cc2)=NS1(=O)=O | 4%
26 | Cc1cccc2c1OCC/C2=N\NC(=O)COc1ccccc1 | 11.2%
27 | CCOc1ccc(S(=O)(=O)N(CC)CC)cc1N | 1.64%
28 | Cc1nc([N+](=O)[O-])c(C(=O)OCc2cccc(Br)c2)n1C | -0.133%
29 | CC(=O)Nc1ccc(S(=O)(=O)N(C)CC(=O)OCC(=O)NCc2ccco2)cc1 | 3.99%
30 | CCc1cccc(C)c1NC(=O)COC(=O)CC1CCCC1 | 4.9%
31 | COc1cccc(OC)c1C(=O)Nc1ccccc1C(=O)N1CCOCC1 | 7.58%
32 | O=C(Nc1ccncc1)c1ccc(NS(=O)(=O)c2cccc(F)c2)cc1 | 3.76%
33 | O=C(Nc1ccc(N2CCCC2=O)cc1)c1cccc(F)c1 | -5.54%
34 | COc1ccc(-n2c(SCC(=O)Nc3ccc(C)cc3)nc(O)c(Cc3ccccc3)c2=O)cc1 | 13.6%
35 | CCn1c(COc2ccc(=O)n(-c3ccccc3)n2)nnc1SCc1ccc(C)cc1 | -22.6%
36 | O=C(COC(=O)C12CC3CC(CC(O)(C3)C1)C2)Nc1ccc(Br)cc1F | -10.2%
37 | COC(=O)[C@@H]1C[C@@]2(O)[C@@H](O)[C@@H](O)[C@@H](O)C[C@H]2N1Cc1ccc(-c2ccccc2)cc1 | 8.7%
38 | COc1ccc(C(CNC(=O)CNC(=O)c2ccc(F)cc2)N2CCCC2)cc1 (centres unmarked) | 1.1%
39 | N#CC(C#N)=c1ccc2c(c1)NC1(CCCCC1)N=2 | 13%
40 | Cc1nn(C)c(C)c1CN(C(=O)C1CCC(=O)N(C2CCCCCC2)C1)C(C)C (centres unmarked) | 12.6%
41 | CNS(=O)(=O)c1cccc(C(=O)OC2CCCCC2=O)c1 (centres unmarked) | 16.8%
42 | COc1ccc(N(C(=O)c2cccnc2)S(=O)(=O)c2ccccc2)cc1 | 7.43%
43 | CCC(O)(CC)C(=O)NN(C(=O)Nc1csc2c1CCCC2)c1ccccc1 | 12.3%
44 | COCCCNC(=O)CCn1c(=O)c2ccccc2n(Cc2cccc([N+](=O)[O-])c2)c1=O | -16.5%
45 | CCOC(=O)Nc1ccc(NC(=O)c2c(OC)cccc2OC)cc1 | 7.84%
46 | OCc1ccc(O)c2ncccc12 | 2.3%

Row | Structure (SMILES) | hERG current change (%, negative = inhibition) at 1uM
47 | C/C(=N/OC(=O)C1CC1c1ccccc1)c1ccccc1 (centres unmarked) | 18.3%
48 | COCCCNc1nc2ccccc2nc1NS(=O)(=O)c1ccc(C)cc1 | 5.09%
49 | CC(C)N(Cc1nnc(-c2ccc(Cl)cc2)o1)C(=O)c1cc2ccccc2o1 | -0.713%
50 | CCc1cc(C(=O)O)c(NC(=O)C(c2ccccc2)c2ccccc2)s1 | 16.6%
51 | COC(=O)c1ccc(C2NC(=O)CCC2[N+](=O)[O-])cc1 (centres unmarked) | 13.7%
52 | COCCCC1CCN(Cc2nc(Cc3ccccc3Cl)no2)CC1 | 2.53%
53 | COc1ccccc1-c1nnc(NC(=O)c2ccc(S(=O)(=O)N3CCCC3)cc2)o1 | -23.2%
54 | S=C(NCC1CCCCC1)Nc1ccc(Oc2ccccc2)cc1 | 6.68%
55 | O=C(CN1CCN(CC(=O)Nc2ccccc2Cc2ccccc2)CC1)Nc1ccccc1Cl | 17.1%
56 | CC(C)NC(=O)c1onc(CSc2ccc(C(C)C)cc2)c1C(=O)O | 13.1%
57 | COc1ccc(CCNC(=O)c2cccc3c2C(=O)N(C2CCCCC2)C3)cc1OC | 6.77%
58 | Cc1ccnc(NS(=O)(=O)c2ccc(NC(=O)c3ccc4c(c3)OCCO4)cc2)n1 | 16.6%
59 | CCOC(=O)N1CCN(C(=O)C(=O)Nc2sc3c(c2C(=O)O)CC(C)(C)OC3)CC1 | 15.3%
60 | Cl.NCC(O)c1ccc(O)cc1 (centres unmarked) | 3.92%
61 | Cc1ccc(NC(=O)CNc2ccc(OC(C)C)cc2)c(C)c1 | 6.16%
62 | NC(=O)CCC1NC(=S)N(Cc2ccccc2)C1=O (centres unmarked) | 10.4%
63 | CCOC(=O)c1c(NC(=O)Cn2c(=O)oc3ccccc32)oc(C)c1C(C)=O | 13.3%
64 | Cc1cccc(-n2c(C)nc3cc(C(=O)N4CCOCC4)ccc32)c1 | 13.3%
65 | O=C1NC(=Nc2ccccc2Cl)S/C1=C\c1cc([N+](=O)[O-])ccc1O | 2.26%
66 | COc1ccccc1NC(=O)CN(Cc1ccco1)C(=O)c1cc2ccccc2o1 | 0.0983%
67 | Cc1nc2cc(C(=O)O)ccc2n1-c1ccc(F)cc1F | 2.5%
68 | CC(=O)Nc1cccc(Oc2ccc(-c3noc(C)n3)cc2)c1 | 6.33%
69 | CN(C)CCc1nn[nH]n1 | -3.43%

Row | Structure (SMILES) | hERG current change (%, negative = inhibition) at 1uM
70 | O=S(=O)(c1ccc(Oc2ccc(F)c(Cl)c2)nc1)N1CCOCC1 | 3.7%
71 | Cc1cccc(NC(=O)CN2C(=O)NC(C)(c3ccc4c(c3)OCO4)C2=O)c1 (centres unmarked) | -16.4%
72 | CN(C(=O)c1nn(C)c2c1CSc1ccccc1-2)c1ccc(F)cc1 | 10.2%
73 | Cc1sc(NC(=O)CCC(=O)O)c(C(N)=O)c1-c1ccccc1 | 7.1%
74 | Cc1ccc(/C=N/NC(=O)Cc2cccs2)o1 | 9.02%
75 | N#CCc1nc(CSc2nc3ccccc3s2)cs1 | 11.8%
76 | COc1ccc(NC2=C3CC(C)CC=C3N(c3ccc(OC)cc3)C2=O)cc1 (centres unmarked) | 4.39%
77 | CCN(CC)C(=O)CSc1nc2cc(S(=O)(=O)N3CCOCC3)ccc2n1CC | 12.4%
78 | N#C/C(=C\c1cccnc1)c1ccc([N+](=O)[O-])cc1 | -9.76%
79 | S=C(Nc1cccnc1)Nc1ccccc1Br | -8.83%
80 | COc1ccc(/C=C(/NC(C)=O)C(=O)O)cc1 | 13.5%
81 | CCOC(=O)N1CCC(NC(=O)CCS(=O)(=O)c2ccc3c(c2)CCN3C(C)=O)CC1 | 6.95%
82 | O=C1CCc2cc(S(=O)(=O)NC(Cc3ccccc3)C(=O)N3CCN(c4ccccn4)CC3)ccc2N1 (centres unmarked) | -21.8%
83 | Cc1ccc(C(=O)Nc2nnc(COc3ccccc3)s2)cc1 | 6.33%
84 | NC(=O)Cn1cc(C(=O)c2cccs2)c2ccccc21 | 6.32%
85 | CNc1c(NS(=O)(=O)c2ccc3c(c2)CCCC3)c(=O)oc2ccccc12 | 15.4%
86 | O=c1[nH]c(=O)n(CCc2ccccc2)c(O)c1/C=N/N1CCOCC1 | 15.2%
87 | O=C(OCc1nc2ccccc2[nH]1)C1CCCCC1 | 5.67%
88 | CCOC(=O)C1(Cc2ccccc2C(F)(F)F)CCN(CCCn2cccn2)CC1 | -49.2%
89 | CCN1CCN(c2ccc(N=Cc3ccc(O)cc3O)cc2)CC1 | 11.5%
